Activation data for 86 molecules are collected here from PubChem BioAssay AID1346428 (National Center for Advancing Translational Sciences (NCATS), 2018).

Structures are written as SMILES. In all, about 48,000 compounds went through this assay and about 1,200 (2.5%) were called active. About 2% were inconclusive and are not listed.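 How the source made its calls: active means activation of at least 60% and not above a set upper limit (about 1 call in 100 departs from these limits); inconclusive means activation of 40% to 60%, or above that upper limit; inactive means activation under 40%.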 The list shows a part of the results.

This assay has as its target Probable G-protein coupled receptor 32 (Homo sapiens) (UniProt O75388). Nature of the assay: qHTS for Agonists of Human Resolvin D1 Receptor DRV1. Further: 0% is about no effect. The conditions noted are these: CHO-K1 GPR32 beta-arrestin PathHunter luminescence, 90 min; at 76.9 µM; stronger effect = higher value; zero percent set by DMSO-only wells. Put shortly: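 Agonism was scored as beta-arrestin recruitment to ProLink-fused GPR32 in stably transfected CHO-K1 cells, giving a chemiluminescent beta-Gal signal; compounds were incubated 90 min at 37 °C.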
Chain of UniProt O75388 (O75388 whole entry, looked up, the tested form may be a part): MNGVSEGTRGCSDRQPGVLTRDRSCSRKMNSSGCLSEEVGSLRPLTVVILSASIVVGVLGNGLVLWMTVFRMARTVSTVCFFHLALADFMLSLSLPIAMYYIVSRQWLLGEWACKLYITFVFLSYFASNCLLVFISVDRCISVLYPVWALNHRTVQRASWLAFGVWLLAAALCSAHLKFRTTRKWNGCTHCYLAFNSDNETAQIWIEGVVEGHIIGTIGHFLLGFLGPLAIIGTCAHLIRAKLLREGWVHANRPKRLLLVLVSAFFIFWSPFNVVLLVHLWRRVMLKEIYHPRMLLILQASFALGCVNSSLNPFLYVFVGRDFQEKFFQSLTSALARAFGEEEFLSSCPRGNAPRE
(In qHTS, concentration-response curves come from the screen itself.)
For the molecule `Cc1ccc(NC(=O)/C=C/c2ccc(Cl)cc2)c(Br)c1`, the activation was inactive: 31.9%.

For the molecule `COc1ccccc1-c1nnc(C2CCN(C(=O)c3cccc(Cl)c3)CC2)o1`, the activation is inactive: -5.48%.

With `CCOC(=O)c1ccccc1NC(=O)Cn1c(=O)n(CCC(=O)N2CCc3ccccc3C2)c(=O)c2ccccc21`, the activation is inactive: -5.12%.

As for `Cc1cccc(C(c2sc3nc(-c4ccco4)nn3c2O)N2CCN(Cc3ccccc3)CC2)c1` (stereo unspecified), the activation is inactive: -20.9%.

As to `COc1cc(NC(=O)c2cc(Cl)ccc2Cl)ccc1NC(=O)c1cc2ccccc2o1`, the activation was inactive: 16.3%.

On to `COc1cc(C2CC(=O)c3c([nH]c(C(=O)OCc4ccc(C)cc4)c3C)C2)cc(OC)c1OC` (stereo unspecified), for which the activation is inactive: 14.4%.

`Cc1ccccc1NC(=O)Cn1c(=O)n(CCCCCC(=O)NCc2ccccc2Cl)c(=O)c2sccc21`: the activation was inactive: -21.6%.

In the case of `COCCCNC(=O)c1[nH]c2ccccc2c1Sc1ccc(C)cc1`, the activation was inactive: -21.6%.

In the case of `CN(C)c1ccc(CNC(=O)c2cnc3sc(N4CCCC4)nn3c2=O)cc1`, the activation is inactive: 1.84%.

As to `CCS(=O)(=O)N1CCc2cc(C(=O)NCc3ccc(Cl)cc3)ccc21`, the activation is inactive: 17.7%.

`Cc1c(NC(=O)Cc2ccc(F)cc2)cccc1-c1nc2cccnc2s1`: the activation is inactive: -11.9%.

With `Cc1cccc(NC(=O)CSc2nc3ccc(NC(=O)COc4ccc(Cl)cc4)cc3s2)c1`, the activation was inactive: 12.5%.

For the molecule `Cc1cccc(NC(=O)c2cc3c(=O)n(Cc4ccco4)ccc3nc2C)c1`, the activation was inactive: -18.1%.

With `O=C(Nc1nnc(SCc2cc(=O)c3ccccc3[nH]2)s1)c1ccccc1`, the activation was inactive: 32.8%.

As for `Cc1nn(-c2ccccc2)c2c1N(CC(=O)NCc1ccc(N(C)C)cc1)C(=O)CS2`, the activation is inactive: 3.99%.

Regarding `Fc1ccc(-c2nc(-c3cccs3)c(-c3cccs3)[nH]2)cc1`, the activation was inactive: 13.5%.

Regarding `Cc1ccc2cc3cc(C(=O)N4CCN(c5cccc(C(F)(F)F)c5)CC4)sc3nc2c1`, the activation was inactive: 4.12%.

Take `CN(c1ncnc2c1c(-c1ccccc1)cn2-c1ccc(F)cc1)C1CCCCC1`: the activation was inactive: -54.9%.

`CCC(=O)N1CCc2cc(S(=O)(=O)CCC(=O)N3CCN(c4ccccc4Cl)CC3)ccc21`: the activation is inactive: -2.62%.

Regarding `O=C(NCCOCCO)C(=O)Nc1c2c(nn1-c1ccc(F)cc1)CSC2`, the activation was inactive: -12.6%.

Turning to `O=C(NCCn1cc(SCc2cccc(F)c2)c2ccccc21)c1cccc(C(F)(F)F)c1`, the activation is inactive: 23.5%.

Regarding `Cc1ccc(N(Cc2cccs2)C(=O)c2ccccc2)cc1`, the activation is inactive: -43.8%.

In the case of `CCOC(=O)c1cc(-c2ccccc2)n(CCC(=O)Nc2ccc(C(F)(F)F)cc2)c1C`, the activation was inactive: -7.75%.

As to `Clc1ccccc1Cn1cccc1C1=NC(Cc2ccccc2)CO1` (stereo unspecified), the activation was inactive: -9.09%.

For the molecule `COc1ccc(-c2nc3ccc(NS(C)(=O)=O)cc3o2)cc1`, the activation is inactive: 26.3%.

On to `O=C(O)c1ccc(Nc2nc(-c3ccccc3)c3cc(Br)ccc3n2)cc1`, for which the activation is inactive: -9.83%.

`Cn1c(SCC(N)=O)nc2c([nH]c3ccccc32)c1=O`: the activation is inactive: -6.16%.

For `Cc1cccc(NC(=O)CSc2nnc3scc(-c4ccccc4)n23)c1`, the activation was inactive: -11.9%.

Consider `O=C(O)c1ccccc1Nc1ccccc1`, for which the activation is inactive: 15.2%.

Regarding `COc1ccccc1NC(=O)c1oc2ccccc2c1NC(=O)C(C)C`, the activation was inactive: -5.38%.

Take `CN(C)CCN1CCN(c2cccc(Cl)c2)C1=O`: the activation was inactive: 5.05%.

For the molecule `COc1cccc(-c2nnc(-c3cc4cc(Cl)ccc4oc3=O)o2)c1`, the activation is inactive: 4.86%.

For `O=C1CCc2cc(S(=O)(=O)NCc3ccc(Cl)cc3)cc3c2N1CC3`, the activation was inactive: 5.24%.

For `COc1cc(-c2noc(CSc3nc(-c4ccc(F)cc4)cc(=O)[nH]3)n2)cc(OC)c1OC`, the activation was inactive: -9.29%.

Regarding `O=c1c(N2CCN(c3cccc(C(F)(F)F)c3)CC2)csc2ccccc12`, the activation was inactive: -10.4%.

Consider `CC1CCN(S(=O)(=O)c2ccc3c(c2)c(=O)c(C(=O)NCc2ccc(Cl)cc2)cn3C)CC1`, for which the activation was inactive: -11.2%.

`Cc1ccccc1CNC(=O)c1ccccc1NC(=O)c1nsc2ccccc12`: the activation was inactive: -7.47%.

Regarding `O=C(Nc1ccc(Cl)c(C(F)(F)F)c1)C1CCCN(S(=O)(=O)c2cccc3cccnc23)C1` (stereo unspecified), the activation was inactive: -6.25%.

`CC(C)(C)c1ccc(CSc2nc3c(c(=O)[nH]2)CCCC3)cc1`: the activation was inactive: 44.8%.

`CCC1CCC(C(=O)NC(C(=O)NCCN(CC(C)C)CC(C)C)C(C)C)CC1` (stereo unspecified): the activation was inactive: 5.26%.

Consider `COc1ccccc1NC(=O)Cn1cnc2c(nc3n2CCCCC3)c1=O`, for which the activation is inactive: -1.36%.

In the case of `CCOc1ccc(Nc2c(S(=O)(=O)c3ccc(Cl)cc3)cnc3ccc(OC)cc23)cc1`, the activation is inactive: -42.7%.

For `O=C(Nc1ccc(F)cc1)N1CCN(c2ccc3nnc(-c4ccc(F)cc4)n3n2)CC1`, the activation is inactive: 36.8%.

On to `Cc1ccc(-n2nnc(-c3nsc(NC(=O)c4ccccc4C)n3)c2C)cc1Cl`, for which the activation is inactive: -4.31%.

Take `COc1ccc(-c2c3c(=O)n(C)c(=O)n(C)c3cn2-c2cccc(N)c2)cc1`: the activation is inactive: -17.6%.

For the molecule `COc1ccc(-c2cn3c(n2)sc2cc(C(=O)NCc4cccs4)ccc23)cc1`, the activation is inactive: -16.8%.

For `CCOC(=O)CC(NC(=O)CCc1c(C)nc2c(-c3ccccc3)c(C)nn2c1C)c1ccc(C)cc1` (stereo unspecified), the activation was inactive: 6.77%.

Consider `Cc1ccc(CNC(=O)C2CCN(C(=O)c3ccc(-n4ccc5ccccc54)s3)CC2)cc1`, for which the activation was inactive: 18.5%.

Regarding `COc1cccc(CN2C(=O)N(c3ccc(C)cc3)C(=O)C2CC(=O)Nc2cc(OC)cc(OC)c2)c1` (stereo unspecified), the activation is inactive: -13.1%.

For `COc1ccc(Cn2ccc3nc(C)c(C(=O)Nc4ccc(F)cc4)cc3c2=O)cc1`, the activation is inactive: 5.45%.

`CCn1cc(C(=O)NCCc2ccc(Cl)cc2)c(=O)c2cc(S(=O)(=O)N3CCc4ccccc4C3)ccc21`: the activation was inactive: 21.5%.

In the case of `COCCCNC(=O)c1[nH]c2cc(OC)ccc2c1Sc1ccc(C)cc1`, the activation was inactive: -3.51%.

As to `Nc1nonc1-c1nc2ccccc2n1CC(=O)Nc1cccc(Cl)c1Cl`, the activation is inactive: -1.57%.

`CCc1cccc(NC(=O)Cn2ccn3nc(-c4ccc(OC)c(OC)c4)cc3c2=O)c1`: the activation is inactive: 17.8%.

Turning to `CN(Cc1ccco1)S(=O)(=O)c1nnc(NC(=O)c2ccccc2)s1`, the activation was inactive: 18.1%.

As to `O=C(Nc1ccc(F)cc1)c1ccc2c(c1)NC(=O)c1ccccc1S2`, the activation is active: 76%.

Regarding `Cc1cccc(-c2noc(-c3ccc(NCc4cccnc4)c([N+](=O)[O-])c3)n2)c1`, the activation was inactive: 26%.

With `COc1ccccc1N(CC(=O)Nc1cc(C)cc(C)c1)S(C)(=O)=O`, the activation was inactive: 5.04%.

In the case of `O=C(Nc1nnc(S(=O)(=O)N2CCCCCC2)s1)c1ccccc1`, the activation was inactive: 30.8%.

For the molecule `CCc1ccc(NS(=O)(=O)c2c(-c3ccccc3)csc2C(=O)OC)cc1`, the activation was inactive: -10.1%.

For the molecule `Cc1cc(NCc2ccc(Cl)cc2)n2cnnc2n1`, the activation is inactive: -1.54%.

For `COC(=O)c1ccc(Oc2nc3c(c(=O)n(C)c(=O)n3C)n2Cc2ccc(Cl)c(Cl)c2)cc1`, the activation is inactive: 20%.

Consider `CCC(=O)Nc1cccc(OCc2cc(=O)n3cc(C)ccc3n2)c1`, for which the activation is inactive: -1.99%.

Consider `CCOc1ccc(NC(=O)c2nnn(-c3ccc(F)c(Cl)c3)c2C)cc1`, for which the activation is inactive: 16.6%.

Take `Cc1ccccc1NC(=O)Cn1cc(S(=O)(=O)N2CCCC2)c(S(=O)(=O)N2CCCC2)c1`: the activation was inactive: -11.4%.

`CC1=C(C(=O)Nc2ccccc2)C(c2ccccn2)n2nc(SCc3ccccc3Cl)nc2N1` (stereo unspecified): the activation was inactive: 4.02%.

For the molecule `COc1ccc(NC(=O)c2oc3ccccc3c2NC(=O)C23CC4CC(CC(C4)C2)C3)cc1`, the activation is inactive: 2.02%.

On to `COc1ccc(OC)c(NC(=O)c2c(NCc3ccc(N(C)C)cc3)sc3c2CCCC3)c1`, for which the activation was inactive: -15.6%.

For the molecule `COc1cc(OC)cc(C(=O)Nc2ccc3c(c2)n(C)c(=O)c(=O)n3C)c1`, the activation was inactive: -11%.

On to `Cc1ccc(OCc2cc(=O)n3c4c(sc3n2)CCCC4)cc1C`, for which the activation is inactive: 4.63%.

Consider `COc1ccc(S(=O)(=O)N(CC(=O)Nc2ccc3c(c2)OCO3)c2ccc(C)cc2)cc1`, for which the activation was inactive: 5.25%.

Regarding `O=C(NCc1ccccc1Cl)c1ccc(NC(=O)N2CCSc3ccccc32)cc1`, the activation is inactive: -20.2%.

As for `O=C(NCCCc1ccccc1)c1nn(-c2ccccc2)nc1CO`, the activation is inactive: -13.3%.

For the molecule `Cn1cc(S(=O)(=O)N2CCCCC2)cc1C(=O)Nc1ccc(OC(F)(F)F)cc1`, the activation is inactive: 0.518%.

As for `O=C(Cn1cc(S(=O)(=O)c2ccccc2)c(=O)c2cc3c(cc21)OCO3)Nc1ccccc1`, the activation was inactive: -3.44%.

On to `Cc1nc2nc(SCC(=O)NC3CCC(C)CC3)nn2c(C)c1Cc1ccccc1Cl` (stereo unspecified), for which the activation is inactive: -2.93%.

On to `CCc1ccc2occ(CC(=O)Nc3sc4c(c3C(=O)NCCOC)CCCC4)c2c1`, for which the activation is inactive: -0.46%.

`N=C(N)c1ccc(OCCCOc2ccc(C(=N)N)cc2)cc1`: the activation was inactive: -16.6%.

Turning to `Cc1ccc(S(=O)(=O)C(CNC(=O)c2ccc(C(F)(F)F)cc2)c2ccco2)cc1` (stereo unspecified), the activation was inactive: -13%.

As to `CC(N)=NCCCC[C@@H](N)C(=O)O`, the activation is inactive: -0.194%.

In the case of `Cc1noc(-c2ccc(-c3noc(-c4cccc(Cl)c4)n3)cc2)n1`, the activation was inactive: -0.589%.

Turning to `Cc1nc2c(-c3ccccc3)c(C)nn2c(C)c1CCC(=O)NCc1ccccc1`, the activation is inactive: 6.8%.

For the molecule `CCn1cc2nc(SCc3cccc(C)c3)n(CCc3ccccc3)c(=O)c2n1`, the activation was inactive: 2.74%.

Take `CCOC(=O)c1ccc(NC(=O)CCC(=O)N2CCSc3ccccc32)cc1`: the activation was inactive: -8.67%.

`CCc1ccc2oc(-c3ccc(C)c(NC(=O)c4ccc(C#N)cc4F)c3)nc2c1`: the activation was inactive: -27.8%.

On to `Cc1ccc(S(=O)(=O)n2nc(-c3ccco3)nc2NCc2ccc(N(C)C)cc2)cc1`, for which the activation was inactive: -35.7%.
